Test results taken from the supplement of paper PMC4967469.

Tests used:
Assay in all cases: Viability of human cancer cell lines after 72 h of drug (GDSC screen)
[1] = compound: CC(=O)Nc1cccc(-n2c(=O)n(C3CC3)c(=O)c3c(Nc4ccc(I)cc4F)n(C)c(=O)c(C)c32)c1 [Trametinib]; details: top dose 1 µM
Method: (§1)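 Human cancer cell lines in 384-well plates, medium with 10% serum, drug for 72 h over a 256-fold dose range (nine 2-fold or five 4-fold steps up to the top dose). Adherent lines were fixed and stained with the nucleic acid dye Syto60, suspension lines read with resazurin; signal relative to control wells, capped at 0 and 100%. One two-parameter sigmoid per drug and line, fitted in a mixed model over all curves with the slope shared within a line.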

[2] = compound: CCN1CCN(Cc2ccc(NC(=O)c3ccc(C)c(/C=C/c4cnc5[nH]ccc5c4OC)c3)cc2C(F)(F)F)CC1 [HG-6-64-1]; details: top dose 5.12 µM; top dose inferred
Method: as §1

[3] = compound: CCNC(=O)C[C@@H]1N=C(c2ccc(Cl)cc2)c2cc(OC)ccc2-n2c(C)nnc21 [I-BET-762]; details: top dose 20 µM; top dose inferred
Method: as §1

[4] = compound: CCc1cncnc1N1CCN(Cc2nc3ccc(C(F)(F)F)cc3[nH]2)CC1 [PF-4708671]; details: top dose 10 µM; top dose inferred
Method: as §1

[5] = compound: COc1cc2nccc(Oc3ccc(NC(=O)Nc4cc(C)on4)c(Cl)c3)c2cc1OC [AV-951]; details: top dose 0.128 µM; top dose inferred
Method: as §1

[6] = compound: Nc1ccccc1NC(=O)c1ccc(CNC(=O)OCc2cccnc2)cc1 [MS-275]; details: top dose 5 µM; top dose inferred
Method: as §1

[7] = compound: O=C(NC(COc1ccc2[nH]c(=O)[nH]c2c1)c1ccccc1)c1cccn(Cc2ccc(F)c(F)c2)c1=O [KIN001-244]; details: top dose 20 µM; top dose inferred
Method: as §1

Row | Cell Line | AUC [1] | pIC50 [1] | AUC [2] | pIC50 [2] | AUC [3] | pIC50 [3] | AUC [4] | pIC50 [4] | AUC [5] | pIC50 [5] | AUC [6] | pIC50 [6] | AUC [7] | pIC50 [7]
1 | REH (B-cell leukaemia, suspension) | 0.93 | < 6.00 | 0.76 | 5.76 | 0.756 | 5.18 | 0.987 | < 5.00 | 0.963 | < 6.89 | 0.882 | 5.31 | 0.762 | 5.16
2 | RF-48 (stomach, adherent) | 0.95 | < 6.00 | 0.583 | 6.25 | 0.701 | 5.30 | 0.945 | < 5.00 | 0.979 | < 6.89 | 0.787 | 5.61 | 0.602 | 5.61
3 | RH-1 (rhabdomyosarcoma, adherent) | 0.984 | < 6.00 | 0.949 | < 5.29 | 0.951 | < 4.70 | 0.98 | < 5.00 | 0.984 | < 6.89 | 0.967 | < 5.30 | 0.654 | 5.51
4 | RKO (large intestine, adherent) | 0.457 | 7.32 | 0.805 | 5.63 | 0.607 | 5.62 | 0.972 | < 5.00 | 0.988 | < 6.89 | 0.861 | 5.43 | 0.887 | 4.71
5 | RL (B-cell lymphoma, suspension) | 0.966 | < 6.00 | 0.987 | < 5.29 | 0.591 | 5.66 | 0.974 | < 5.00 | 0.987 | < 6.89 | 0.939 | < 5.30 | 0.599 | 5.64
6 | ROS-50 (B-cell leukaemia, suspension) | 0.982 | < 6.00 | 0.843 | < 5.29 | 0.614 | 5.55 | 0.887 | < 5.00 | 0.981 | < 6.89 | 0.766 | 5.63 | 0.899 | < 4.70
7 | RPMI-6666 (Hodgkin lymphoma, suspension) | 0.91 | < 6.00 | 0.534 | 6.39 | 0.583 | 5.66 | 0.924 | < 5.00 | 0.919 | < 6.89 | 0.529 | 6.42 | 0.752 | 5.11
8 | RPMI-8866 (chronic myeloid leukaemia, suspension) | 0.83 | 6.25 | 0.951 | < 5.29 | 0.49 | 5.93 | 0.965 | < 5.00 | 0.986 | < 6.89 | 0.775 | 5.74 | 0.835 | 4.92
9 | RS4-11 (leukaemia, suspension) | 0.981 | < 6.00 | 0.769 | 5.75 | 0.501 | 5.90 | 0.973 | < 5.00 | 0.979 | < 6.89 | 0.959 | < 5.30 | 0.642 | 5.53
10 | RXF393 (kidney, adherent) | 0.396 | 7.54 | 0.457 | 6.63 | 0.976 | < 4.70 | 0.946 | < 5.00 | 0.975 | < 6.89 | 0.924 | < 5.30 | 0.817 | 4.76
11 | Ramos-2G6-4C10 (Burkitt lymphoma, suspension) | 0.949 | < 6.00 | 0.734 | 5.88 | 0.763 | 5.20 | 0.966 | < 5.00 | 0.985 | < 6.89 | 0.546 | 6.39 | 0.705 | 5.37
12 | SBC-1 (small cell lung carcinoma, suspension) | 0.985 | < 6.00 | 0.988 | < 5.29 | 0.83 | 4.92 | 0.984 | < 5.00 | 0.988 | < 6.89 | 0.716 | 5.91 | 0.956 | < 4.70
13 | SCH (stomach, adherent) | 0.987 | < 6.00 | 0.986 | < 5.29 | 0.988 | < 4.70 | 0.971 | < 5.00 | 0.988 | < 6.89 | 0.865 | 5.30 | 0.978 | < 4.70
14 | SF126 (glioma, adherent) | 0.888 | < 6.00 | 0.587 | 6.25 | 0.952 | < 4.70 | 0.983 | < 5.00 | 0.978 | < 6.89 | 0.81 | 5.55 | 0.872 | < 4.70
15 | SF268 (glioma, adherent) | 0.868 | < 6.00 | 0.691 | 5.94 | 0.872 | < 4.70 | 0.979 | < 5.00 | 0.983 | < 6.89 | 0.823 | 5.49 | 0.846 | 4.79
16 | SF539 (glioma, adherent) | 0.536 | 7.11 | 0.803 | 5.65 | 0.979 | < 4.70 | 0.963 | < 5.00 | 0.964 | < 6.89 | 0.388 | 6.80 | 0.918 | < 4.70
17 | SH-4 (melanoma, adherent) | 0.104 | > 8.41 | 0.625 | 6.07 | 0.848 | < 4.70 | 0.914 | < 5.00 | 0.972 | < 6.89 | 0.668 | 5.92 | 0.706 | 5.18
18 | SHP-77 (small cell lung carcinoma, semi-adherent) | 0.991 | < 6.00 | 0.963 | < 5.29 | 0.872 | 4.80 | 0.97 | < 5.00 | 0.989 | < 6.89 | 0.851 | 5.49 | 0.91 | < 4.70
19 | SIMA (neuroblastoma, adherent) | 0.71 | 6.57 | 0.879 | < 5.29 | 0.817 | 4.88 | 0.983 | < 5.00 | 0.978 | < 6.89 | 0.932 | < 5.30 | 0.851 | 4.73

Row | Cell Line | AUC [1] | pIC50 [1] | AUC [2] | pIC50 [2] | AUC [3] | pIC50 [3] | AUC [4] | pIC50 [4] | AUC [5] | pIC50 [5] | AUC [6] | pIC50 [6] | AUC [7] | pIC50 [7]
20 | SJSA-1 (bone, adherent) | 0.717 | 6.55 | 0.826 | 5.44 | 0.772 | 5.06 | 0.972 | < 5.00 | 0.975 | < 6.89 | 0.704 | 5.89 | 0.925 | < 4.70
21 | SK-ES-1 (Ewing sarcoma, semi-adherent) | 0.983 | < 6.00 | 0.743 | 5.78 | 0.926 | < 4.70 | 0.974 | < 5.00 | 0.981 | < 6.89 | 0.843 | 5.41 | 0.839 | 4.83
22 | SK-LMS-1 (soft tissue, adherent) | 0.28 | 7.81 | 0.549 | 6.36 | 0.838 | 4.90 | 0.949 | < 5.00 | 0.986 | < 6.89 | 0.869 | 5.37 | 0.842 | 4.88
23 | SK-MEL-1 (melanoma, suspension) | 0.225 | 7.94 | 0.958 | < 5.29 | 0.992 | < 4.70 | 0.978 | < 5.00 | 0.989 | < 6.89 | 0.931 | < 5.30 | 0.963 | < 4.70
24 | SK-MEL-2 (melanoma, adherent) | 0.108 | > 8.41 | 0.786 | 5.64 | 0.986 | < 4.70 | 0.984 | < 5.00 | 0.985 | < 6.89 | 0.96 | < 5.30 | 0.953 | < 4.70
25 | SK-MM-2 (myeloma, suspension) | 0.985 | < 6.00 | 0.915 | < 5.29 | 0.757 | 5.14 | 0.987 | < 5.00 | 0.98 | < 6.89 | 0.568 | 6.32 | 0.865 | 4.72
26 | SK-N-DZ (neuroblastoma, adherent) | 0.801 | 6.32 | 0.958 | < 5.29 | 0.952 | < 4.70 | 0.96 | < 5.00 | 0.985 | < 6.89 | 0.712 | 5.91 | 0.924 | < 4.70
27 | SK-UT-1 (soft tissue, adherent) | 0.906 | < 6.00 | 0.497 | 6.50 | 0.989 | < 4.70 | 0.98 | < 5.00 | 0.989 | < 6.89 | 0.783 | 5.72 | 0.913 | < 4.70
28 | SLVL (B-cell lymphoma, suspension) | 0.926 | < 6.00 | 0.826 | 5.47 | 0.738 | 5.20 | 0.979 | < 5.00 | 0.976 | < 6.89 | 0.433 | 6.69 | 0.724 | 5.25
29 | SNB75 (glioma, adherent) | 0.815 | 6.04 | 0.614 | 6.12 | 0.868 | < 4.70 | 0.979 | < 5.00 | 0.966 | < 6.89 | 0.889 | < 5.30 | 0.978 | < 4.70
30 | SNU-C1 (large intestine, suspension) | 0.221 | 8.21 | 0.897 | < 5.29 | 0.97 | < 4.70 | 0.943 | < 5.00 | 0.98 | < 6.89 | 0.859 | < 5.30 | 0.92 | < 4.70
31 | SR (lymphoid neoplasm, suspension) | 0.876 | 6.08 | 0.793 | 5.68 | 0.86 | 4.85 | 0.919 | < 5.00 | 0.961 | < 6.89 | 0.517 | 6.46 | 0.335 | 6.34
32 | ST486 (Burkitt lymphoma, suspension) | 0.989 | < 6.00 | 0.683 | 6.01 | 0.638 | 5.54 | 0.94 | < 5.00 | 0.982 | < 6.89 | 0.661 | 6.08 | 0.501 | 5.90
33 | SU-DHL-4 (B-cell lymphoma, suspension) | 0.997 | < 6.00 | 0.644 | 6.15 | 0.813 | 5.14 | 0.986 | < 5.00 | 0.996 | < 6.89 | 0.528 | 6.44 | 0.913 | 4.85
34 | SU-DHL-6 (B-cell lymphoma, suspension) | 0.995 | < 6.00 | 0.478 | 6.55 | 0.51 | 5.88 | 0.992 | < 5.00 | 0.995 | < 6.89 | 0.443 | 6.64 | 0.684 | 5.45
35 | SU-DHL-8 (B-cell lymphoma, suspension) | 0.945 | < 6.00 | 0.803 | 5.63 | 0.569 | 5.72 | 0.977 | < 5.00 | 0.938 | < 6.89 | 0.383 | 6.82 | 0.663 | 5.46
36 | SU-DHL-16 (B-cell lymphoma, suspension) | 0.994 | < 6.00 | 0.384 | 6.78 | 0.421 | 6.09 | 0.962 | < 5.00 | 0.978 | < 6.89 | 0.8 | 5.77 | 0.682 | 5.46
37 | SUP-HD1 (Hodgkin lymphoma, suspension) | 0.973 | < 6.00 | 0.843 | 5.47 | 0.848 | 4.86 | 0.983 | < 5.00 | 0.988 | < 6.89 | 0.707 | 5.94 | 0.728 | 5.27

pIC50: −log10 of the molar value. Lines with a small IC50 respond at low doses; a limit (>, <) means that the fit lies beyond the doses tested. AUC is the area under the same curve over the 256-fold range up to the top dose, as a fraction; it is 1 without any effect and falls as sensitivity rises. For some assays here: Where the top dose is marked as inferred, it comes from the curve model; the source does not state it.
